Experimental data as given in the supplement of paper PMC3334620.
In all, about 33,000 sequences were measured (“E-score (-0.5 to 0.5)”: median about -0.011, highest 2% from about 0.28 on). This is one part of the list.

molecular target: T1, Gcr1 (UniProt P07261); experiment: PBM E-score (8-mer binding enrichment) (E-score (-0.5 to 0.5)); higher = stronger / more preferred TF binding; most listed sequences are background and not binding sites; details: protein concentration: 100 nM; construct: GST-full length
T1 sequence: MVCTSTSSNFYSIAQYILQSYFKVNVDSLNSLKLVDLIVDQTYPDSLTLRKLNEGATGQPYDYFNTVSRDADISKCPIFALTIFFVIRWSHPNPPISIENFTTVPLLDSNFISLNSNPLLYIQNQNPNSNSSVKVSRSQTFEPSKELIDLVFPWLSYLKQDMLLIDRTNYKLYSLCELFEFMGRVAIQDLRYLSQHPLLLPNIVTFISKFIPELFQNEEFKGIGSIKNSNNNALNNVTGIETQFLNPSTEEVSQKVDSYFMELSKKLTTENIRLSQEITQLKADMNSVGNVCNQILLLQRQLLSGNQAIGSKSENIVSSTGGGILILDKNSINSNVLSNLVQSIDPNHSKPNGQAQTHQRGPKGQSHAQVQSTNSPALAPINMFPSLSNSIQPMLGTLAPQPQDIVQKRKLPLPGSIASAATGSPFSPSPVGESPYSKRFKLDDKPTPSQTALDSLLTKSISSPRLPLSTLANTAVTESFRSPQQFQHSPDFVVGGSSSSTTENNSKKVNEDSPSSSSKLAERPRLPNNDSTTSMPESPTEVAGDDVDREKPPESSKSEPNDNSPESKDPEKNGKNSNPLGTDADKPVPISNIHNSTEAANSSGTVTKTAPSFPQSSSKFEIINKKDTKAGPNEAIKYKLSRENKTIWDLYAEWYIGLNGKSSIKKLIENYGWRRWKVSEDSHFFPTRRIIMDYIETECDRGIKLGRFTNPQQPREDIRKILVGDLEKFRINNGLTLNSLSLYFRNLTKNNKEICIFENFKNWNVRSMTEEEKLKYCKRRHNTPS
Procedure, shortened: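 Each ungapped eight-base word and its reverse complement, pooled, received an E-score from the Universal PBM Analysis Suite. Underlying scans, normalised with masliner, recorded fluorescent anti-GST bound to GST-tagged yeast transcription factors. These were applied at about 100-200 nM to universal all-10-mer Agilent arrays double-stranded by primer extension.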

Sequence | PBM E-score
CCATTTAC | 0.0873
ATTTAGCC | 0.00789
CACCGTCG | -0.317
CCACTAAC | 0.21
TGCATGAA | -0.0557
GATACAAC | 0.0299
ATTTACGG | 0.0521
GACTCAAC | -0.0666
ATTTTGAA | 0.0622
AGCAGATA | -0.145
CTTGCATA | 0.0241
GTATTAAC | -0.0433
CGTGGGAA | 0.00627
TGCCAAAA | 0.0885
AAAGTTCA | 0.0731
ACTTTACG | 0.176
GATAGAGC | -0.213
ACTTCGGG | 0.0895
CTGTCTTC | 0.00215
CAAAGCAC | -0.179
AAAGTCCC | -0.0568
GGGGATCA | -0.0949
CGGCACGC | 0.0434
TAGCGGAA | 0.145
ACAGCTAG | 0.0504

Sequence | PBM E-score
ATCCACTG | 0.0833
ACCTTGCT | 0.00541
ATATGGAT | 0.0997
TTCAACAA | -0.0695
CCAACTAG | 0.168
GCCGAACA | -0.163
CATGGCAA | -0.0906
AACCTGAA | 0.0694
TGCTGTAA | -0.168
GGGCTTGA | -0.304
CCAATTGC | -0.0718
ACACAGGG | 0.0841
AAGTAGAC | -0.0352
CCCGAATA | 0.334
AAATTATT | 0.15
ATAAGGGG | 0.049
ACTTATCA | 0.181
TCTATCCA | -0.0724
AGTTGTCA | 0.147
TAGACACA | -0.184
ATACTTAC | -0.113
GAATCAAA | 0.0321
CGATGCAG | -0.0163
ACTTCCTG | 0.319
GCCTCAAC | -0.219

Sequence | PBM E-score
TAATGCCA | 0.0406
CGGAACAC | -0.0329
ATACGCGC | 0.0636
AGTCGTTG | -0.0345
CAGAGGGA | -0.186
ATGTCGCA | -0.031
GCGATATA | 0.0571
AAGAAGAA | 0.303
AGCTATTG | 0.104
CAGGGGGG | -0.429
AGGTGTTC | -0.0887
CCTACCGC | -0.072
GCGGCGGA | 0.0513
CCTTATGC | -0.063
GAGCTATC | -0.167
ATGACTGG | -0.129
CCGTCCCG | -0.166
CTAGGAAA | -0.124
CCGGCAAC | 0.318
CAAGTAGA | 0.124
AGGGACGA | -0.0975
TGCATTAA | -0.0869
TCTTACCA | 0.0792
AAAATGGC | 0.127
CACAGTTC | -0.103

Sequence | PBM E-score
CACTTTCG | 0.152
CATAGCGA | -0.163
CGTCACCC | 0.0296
AGGTGGGG | 0.198
GTCCCTGA | 0.0914
GAGATGGC | 0.0716
GTCCAGAA | 0.0699
ATATAGAA | 0.202
GTAGACTA | -0.235
AGGGTCAG | -0.235
AGACAGAC | 0.0896
CTCAACTA | 0.0318
AATCCCTA | 0.0379
ACTATCCT | -0.0391
AGGGCTAG | -0.265
AGCCTGGA | -0.00361
GAACGAAC | -0.107
AAAGTCCA | -0.119
CGGGCTAA | -0.214
ACCCCGAC | -0.0913
ACTTACCA | -0.0264
CCTTGGGA | -0.201
TAATAGAA | 0.11
AGTCGAGG | -0.297
ATTCTCAA | 0.184

Sequence | PBM E-score
GCAGTTCC | 0.0555
AGTACATA | -0.0364
AGTCTAAG | -0.0661
CAGCTTGA | -0.0109
ACCATATC | 0.0125
ATATATGG | -0.0169
CGAGGGCG | 0.0687
ACACAGAC | -0.24
AGGTTAAA | -0.00988
AATTAGAG | 0.0412
CTCACTAC | -0.0719
AAAAAGCT | -0.183
CTAGTTGA | 0.0522
CCCTGTAA | 0.308
ACTCAGTG | -0.101
CCTCGTCA | -0.0532
ACGATTCA | 0.0801
AGGGTAAT | 0.108
AATGCATC | -0.213
AACGGGCA | 0.117
AGAATATA | -0.295
AAATGCTA | 0.0969
TATGCAAA | 0.00787
GGCCGACC | -0.138
TCCTCAAA | 0.166

Sequence | PBM E-score
CGCTCCCC | -0.0692
CCGTTTCA | 0.0614
ACAGGTTG | 0.26
ACGCAAGA | -0.102
ATGGAAAG | 0.0176
GCAACCGC | 0.00581
GTCTCACA | -0.104
AGAGGGGA | -0.138
AACCGGCG | 0.177
GATTGGAA | 0.258
GATACTAA | 0.0118
AAGTCATA | -0.0284
AGCCTCCG | 0.0816
TACATAGA | -0.0753
CTCTACGA | -0.144
CAGTGTCA | -0.103
CCACGCTA | -0.136
AGTTTGAC | 0.111
ATCAAGAC | 0.0131
CCACTTCC | 0.305
ACGGATAA | -0.188
CATTTCGG | 0.147
CTGCTGCA | 0.0766
CGCAGAAC | -0.023
CGCGGAAA | -0.192

Sequence | PBM E-score
CAGCGACA | 0.067
GAAACACA | 0.217
GACCCATC | -0.0963
CCATCCTC | -0.0032
TCCTCGCA | -0.0249
CAAAGATG | 0.016
CGCATCTC | 0.0271
AGCACTCG | 0.00423
ACCCGTCG | -0.0991
AGGAAAGA | -0.0392
AACTTTGA | 0.0812
AGTCCTGG | 0.0342
AAGGAATG | 0.13
ATCTTCAA | 0.0235
AATATGAG | 0.134
GACGAATA | 0.122
CGTACAGA | -0.358
CACTCGCC | -0.19
GGGCCTGA | -0.266
AGGGCATG | -0.176
ACCGTGAA | -0.0845
AGCCTACA | -0.106
